Reference: PMC4336329 (PLoS ONE, 2015)
Hit rate of the full screen: of about 310,000 compounds, about 2,200 (0.71%) showed an effect of 50% or more. Effects have a minus sign here. This is one part of the list.

Molecular target: human ether-à-go-go-related gene (hERG) potassium channel (human, UniProt Q12809)
Assay: primary screen, population patch clamp on CHO cells stably expressing hERG

Sequence of human ether-à-go-go-related gene (hERG) potassium channel (Q12809 whole entry, looked up): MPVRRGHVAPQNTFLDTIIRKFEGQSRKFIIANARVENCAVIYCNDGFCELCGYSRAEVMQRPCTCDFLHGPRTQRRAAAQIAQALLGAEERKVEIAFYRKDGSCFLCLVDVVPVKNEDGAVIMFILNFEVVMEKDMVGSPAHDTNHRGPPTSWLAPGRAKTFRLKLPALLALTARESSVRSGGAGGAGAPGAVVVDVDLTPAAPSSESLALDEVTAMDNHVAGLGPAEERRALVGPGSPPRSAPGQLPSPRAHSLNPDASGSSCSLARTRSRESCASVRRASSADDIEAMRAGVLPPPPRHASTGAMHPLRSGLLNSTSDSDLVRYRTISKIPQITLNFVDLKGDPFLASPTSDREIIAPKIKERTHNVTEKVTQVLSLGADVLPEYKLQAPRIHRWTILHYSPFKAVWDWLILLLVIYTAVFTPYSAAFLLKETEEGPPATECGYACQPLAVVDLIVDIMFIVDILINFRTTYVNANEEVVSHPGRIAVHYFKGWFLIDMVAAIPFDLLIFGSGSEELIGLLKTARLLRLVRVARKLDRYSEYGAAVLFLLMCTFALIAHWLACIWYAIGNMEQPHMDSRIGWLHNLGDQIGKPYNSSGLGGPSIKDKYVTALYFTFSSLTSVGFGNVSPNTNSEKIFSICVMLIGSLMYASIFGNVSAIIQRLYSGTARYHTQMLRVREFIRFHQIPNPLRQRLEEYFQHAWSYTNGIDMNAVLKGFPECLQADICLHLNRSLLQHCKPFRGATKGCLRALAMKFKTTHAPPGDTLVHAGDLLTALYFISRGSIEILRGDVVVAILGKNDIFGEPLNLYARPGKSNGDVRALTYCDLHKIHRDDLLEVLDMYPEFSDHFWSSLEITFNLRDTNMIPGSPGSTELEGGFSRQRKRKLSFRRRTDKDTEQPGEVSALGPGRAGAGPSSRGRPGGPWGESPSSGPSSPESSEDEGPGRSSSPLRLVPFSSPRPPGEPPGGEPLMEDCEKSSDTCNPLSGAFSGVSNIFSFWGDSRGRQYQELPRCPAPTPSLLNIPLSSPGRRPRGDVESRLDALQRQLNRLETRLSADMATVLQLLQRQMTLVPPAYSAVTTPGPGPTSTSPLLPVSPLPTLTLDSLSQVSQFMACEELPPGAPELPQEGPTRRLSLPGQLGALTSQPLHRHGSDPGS

First: COc1ccc(C(CNC(=O)C(C)(C)Oc2ccc(Cl)cc2)N2CCCC2)cc1 (centres unmarked)
Second: COc1cccc(CN(C)C(=O)c2ccccc2SCC(=O)N2CCCC2)c1
The “hERG current change (%, negative = inhibition) at 1uM” value of the first is lower: -2.2% for the first, -2.07% for the second.

Going from `CCc1nnc(NC(=O)/C=C/c2cccs2)s1` to `CCCCn1c(SCC(=O)Nc2cc(C)on2)nnc1-c1cccs1`, the “hERG current change (%, negative = inhibition) at 1uM” value falls from 12.9% to 0.964%.

Compared with `Cc1ccc(C2NC(=S)NC(c3ccc(C)cc3)C23C(=O)NC(=O)NC3=O)cc1` (centres unmarked), `Cc1ccc(-c2nc3c(=O)n(C)c4ccccc4c3o2)cc1` is higher in “hERG current change (%, negative = inhibition) at 1uM” value: 10.1% for the first, 24.8% for the second.

Compared with `CCn1nc(C(=O)Nc2ccc(S(=O)(=O)Nc3ncccn3)cc2)c2ccccc2c1=O`, `CC1CCN(S(=O)(=O)c2ccc(NC(=O)c3ccncc3)cc2)CC1` is higher in “hERG current change (%, negative = inhibition) at 1uM” value: 2.32% for the first, 9.75% for the second.

First: O=C(CC1C(=O)NCCN1Cc1ccc(Cl)c(F)c1)NC1CCCCC1 (centres unmarked)
Second: O=C(O)C1CCCCC1C(=O)Nc1cccc(Cl)c1Cl (centres unmarked)
The “hERG current change (%, negative = inhibition) at 1uM” value of the first is lower: 7.85% for the first, 12.3% for the second.

Going from `Cc1ccc2c(c1)N(CCC(=O)NCc1cccs1)C(=O)C(C)O2` (centres unmarked) to `Cc1coc2cc3oc(=O)c(CCC(=O)NCc4ccccn4)c(C)c3cc12`, the “hERG current change (%, negative = inhibition) at 1uM” value falls from 11.1% to 9.61%.

Compared with `COc1ccc(-c2noc3c2-c2nc(C(C)C)sc2CC3)cc1`, `COc1ccc(-c2ccc3oc(-c4ccsc4)cc3c2)cc1` is higher in “hERG current change (%, negative = inhibition) at 1uM” value: 9.27% for the first, 20.8% for the second.

Compared with `O=c1[nH]c(=S)[nH]c(O)c1N=Nc1cccc(S(=O)(=O)N2CCOCC2)c1`, `CNC(=O)COC(=O)[C@@H](Nc1ccc(S(=O)(=O)N2CCOCC2)cc1[N+](=O)[O-])C(C)C` is lower in “hERG current change (%, negative = inhibition) at 1uM” value: 9.32% for the first, -2.27% for the second.

Going from `Cc1onc(-c2c(Cl)cccc2Cl)c1C(=O)N=C(N)N1CCCC1` to `CCCCc1noc(-c2c(-c3ccccc3Cl)noc2C)n1`, the “hERG current change (%, negative = inhibition) at 1uM” value falls from 9.88% to -1.51%.

Going from `COc1ccc(Cc2nnc(SCC(=O)c3cccc([N+](=O)[O-])c3)n2C)cc1` to `Cc1ccc(SCc2ccc(C(=O)Nc3cc([N+](=O)[O-])ccc3C)cc2)cc1`, the “hERG current change (%, negative = inhibition) at 1uM” value rises from 8.96% to 14.9%.

Compared with `COc1ccc(S(=O)(=O)N2CC(C(=O)O)Oc3ccc(Cl)cc32)cc1` (centres unmarked), `Cc1cccc(N2C(=O)C(Oc3ccc(Cl)cc3Cl)C2C(=O)O)c1C` (centres unmarked) is lower in “hERG current change (%, negative = inhibition) at 1uM” value: 15.9% for the first, 13.4% for the second.

Going from `Cc1cc(CNC(=O)c2cc(COc3ccc(F)c(F)c3)on2)nn1C` to `CCOC(=O)Cn1nc(C)c(NC(=O)COc2ccc(C)c(C)c2)c1C`, the “hERG current change (%, negative = inhibition) at 1uM” value rises from -14.3% to 11.8%.

Compared with `CCCCC(=O)Nc1ccc(N2CCN(S(C)(=O)=O)CC2)cc1`, `CS(=O)(=O)N1CCN(c2ccc([N+](=O)[O-])c(NCc3cccnc3)c2)CC1` is higher in “hERG current change (%, negative = inhibition) at 1uM” value: -1.28% for the first, 13.7% for the second.

First: CCOC(=O)C(NC(=O)CCl)(Nc1sc(C)c(CC)c1C#N)C(F)(F)F (centres unmarked)
Second: CC(C)NC(=O)c1ccc(COCC(F)(F)F)cc1
The “hERG current change (%, negative = inhibition) at 1uM” value of the first is lower: -3.6% for the first, 18.1% for the second.

First: O=C1c2ccccc2NC(c2ccccn2)N1c1ccc(Cl)cc1 (centres unmarked)
Second: O=C(OCc1cc2ccccc2[nH]c1=O)c1ccccn1
The “hERG current change (%, negative = inhibition) at 1uM” value of the first is lower: 0.394% for the first, 7.49% for the second.

Compared with `C/C(=N\NC(=O)OC(C)(C)C)c1ccc[nH]1`, `CC(=O)O.CC1=CC(C)C(/C=N/N=C(N)N)C(C)C1` (centres unmarked) is lower in “hERG current change (%, negative = inhibition) at 1uM” value: 7.25% for the first, 4.96% for the second.

Compared with `COc1ccccc1NC(=O)N1CCCC(c2nc3c(nnn3Cc3ccc(C)cc3)c(=O)[nH]2)C1` (centres unmarked), `CCOC(=O)N1CCc2c(sc3c2c(=O)n(Cc2ccccc2)c(=O)n3Cc2ccc(C)cc2)C1` is higher in “hERG current change (%, negative = inhibition) at 1uM” value: -11.1% for the first, 17.8% for the second.

First: O=c1/c(=C\c2cc([N+](=O)[O-])cc([N+](=O)[O-])c2O)sc2nc3ccccc3n12
Second: Cc1ccccc1-c1nc2ccccc2c(=O)n1/N=C/c1ccc([N+](=O)[O-])cc1
The “hERG current change (%, negative = inhibition) at 1uM” value of the first is higher: 10.6% for the first, 4.52% for the second.

Going from `CCC1(C(=O)OC)NC(c2ccco2)C2C(=O)N(c3ccc(F)cc3)C(=O)C21` (centres unmarked) to `CC(=O)C1C(c2ccc(F)cc2)C2C(C)=NN=C2CC1(C)O` (centres unmarked), the “hERG current change (%, negative = inhibition) at 1uM” value rises from 6.08% to 15.9%.

First: CC[n+]1c(C)n(C)c2cc(S(=O)(=O)N(C)C)ccc21.[I-]
Second: CN(C)S(=O)(=O)c1ccc(C(=O)OCc2ccc(C#N)cc2)cc1
The “hERG current change (%, negative = inhibition) at 1uM” value of the first is higher: 10.2% for the first, 1.99% for the second.

Compared with `NC1=C([N+](=O)[O-])C(c2ccc3c(c2)OCO3)C2=C(CCCC2=O)O1` (centres unmarked), `O=C1C=C(c2ccc3ncccc3c2)C[C@@H](c2ccc3c(c2)OCO3)C1` is lower in “hERG current change (%, negative = inhibition) at 1uM” value: 11.5% for the first, 9.3% for the second.

Compared with `S=c1[nH]nc(-c2cc(-c3ccccc3)n[nH]2)n1/N=C/c1ccc(Cl)c(Cl)c1`, `c1ccc(-c2nnc(CSc3nc4ccccc4[nH]3)o2)cc1` is lower in “hERG current change (%, negative = inhibition) at 1uM” value: 8.7% for the first, -14.2% for the second.

Going from `CCCCC1(COC(=O)CCC(=O)O)C(=O)N(c2ccccc2)N(c2ccccc2)C1=O` to `CC(C)c1ccccc1NC(=O)COC(=O)CCN1C(=O)/C(=C\C=C\c2ccccc2)SC1=S`, the “hERG current change (%, negative = inhibition) at 1uM” value falls from 15.5% to 14%.

First: COC(=O)C1CCN(c2ccc(C(N)=O)cc2[N+](=O)[O-])CC1
Second: O=C(CCC(=O)N1CCCC1)Nc1ccc([N+](=O)[O-])cc1
The “hERG current change (%, negative = inhibition) at 1uM” value of the first is higher: 10.7% for the first, 1.29% for the second.

Compared with `Cc1nc(S(=O)(=O)N(C)Cc2ccccc2)c(C#N)c(C)c1Cl`, `CS(=O)c1ccccc1-c1nc(-c2cccc(Cl)c2)no1` (centres unmarked) is lower in “hERG current change (%, negative = inhibition) at 1uM” value: 10.9% for the first, -3.12% for the second.

First: CC1(C)CN(c2ccc(CC#N)cc2)C1=O
Second: CC1=NN(C(C#N)c2ccc(F)cc2)C(C)(C)C1 (centres unmarked)
The “hERG current change (%, negative = inhibition) at 1uM” value of the first is higher: 10% for the first, 5.53% for the second.

Going from `CCOC(=O)N1CCN(C(=O)C2CCC(=O)N(CCCN3CCCC3=O)C2)CC1` (centres unmarked) to `Cn1c2c(c(=O)n(C)c1=O)CN(CCCN1CCOCC1)CN2`, the “hERG current change (%, negative = inhibition) at 1uM” value falls from 13% to 0.514%.

Going from `CCN(Cc1nc2cc(OC)c(OC)cc2c(=O)[nH]1)C(=O)c1ccc(S(=O)(=O)N(C)C)cc1` to `COc1ccccc1CNC(=O)Cn1c(=O)oc2cc(S(=O)(=O)N3CCCC3)ccc21`, the “hERG current change (%, negative = inhibition) at 1uM” value rises from 6.17% to 7.23%.

Going from `Cc1ccc(-n2ncc3c(=O)n(CC(=O)OCc4ccccc4)cnc32)cc1` to `COCCn1c(SCC(=O)Nc2ccccc2)nc2c(oc3ccccc32)c1=O`, the “hERG current change (%, negative = inhibition) at 1uM” value falls from -2.35% to -3.56%.

Going from `Cc1cc(C)c(NC(=O)CN2C(=O)CC(C)S(=O)(=O)c3ccccc32)c(C)c1` (centres unmarked) to `Cc1cc2cc3c(cc2nc1SCC(=O)N1c2ccccc2CC1C)OCO3` (centres unmarked), the “hERG current change (%, negative = inhibition) at 1uM” value falls from 16.2% to 5.76%.

Compared with `O=C(COc1ccc(Cl)cc1Cl)N1CCN(C(=O)c2ccco2)CC1`, `Cc1occc1C(=O)N1CCN(Cc2ccccc2)CC1` is lower in “hERG current change (%, negative = inhibition) at 1uM” value: 15.1% for the first, -3.57% for the second.

Compared with `CCCOP(=O)(c1ccc(N(C)C)cc1)C(O)c1ccncc1` (centres unmarked), `COc1cccc(C(=O)NC(C)c2ccc(-c3ccccc3)cc2)c1OC` (centres unmarked) is higher in “hERG current change (%, negative = inhibition) at 1uM” value: 6.3% for the first, 14.3% for the second.

First: CN(c1cccc(NC(=O)CN(c2ccc(C34CC5CC(CC(C5)C3)C4)cc2)S(C)(=O)=O)c1)S(C)(=O)=O
Second: CCN(Cc1ccccc1)C(=O)C1CCN(S(=O)(=O)c2ccc3c(c2)OCCO3)CC1
The “hERG current change (%, negative = inhibition) at 1uM” value of the first is lower: 11.1% for the first, 12.8% for the second.

Compared with `CCOc1cc2c(cc1OCC)-n1cccc1C(c1c(O)cccc1OC)NC2.Cl` (centres unmarked), `COc1cc(NC(=O)c2ccc(N3CC4CC(C3)c3cccc(=O)n3C4)c(NC(=O)c3ccncc3)c2)cc(OC)c1OC` (centres unmarked) is higher in “hERG current change (%, negative = inhibition) at 1uM” value: -2.28% for the first, 17.6% for the second.

Going from `CC(=O)c1c(C)[nH]c(C(=O)OC(C)C(=O)Nc2cc(S(=O)(=O)N3CCCCC3)ccc2Cl)c1C` (centres unmarked) to `COc1ccc(S(=O)(=O)NC(C)C(=O)N2CCCCCC2)cc1` (centres unmarked), the “hERG current change (%, negative = inhibition) at 1uM” value rises from -9.02% to 2.64%.

Going from `CC(C)CN(C(=O)COC(=O)C12CC3CC(CC(Cl)(C3)C1)C2)c1c(N)n(Cc2ccccc2)c(=O)[nH]c1=O` to `CCOC(=O)C1(CCc2ccccc2)CCN(C2CCSCC2)CC1`, the “hERG current change (%, negative = inhibition) at 1uM” value falls from 12% to -80.7%.

Compared with `Cc1ccccc1NC(=O)Nc1ccccn1`, `CCNC(=S)NNC(=O)CCn1c2ccccc2c2ccccc21` is lower in “hERG current change (%, negative = inhibition) at 1uM” value: 17% for the first, 4.69% for the second.

Going from `CCC(COC)Oc1cc(NCc2ccccc2)c2ncn(C(C)C)c2c1` (centres unmarked) to `CC(C)N1C(=O)N(c2ccccc2)C(C)(O)CC1(C)C` (centres unmarked), the “hERG current change (%, negative = inhibition) at 1uM” value falls from 11.4% to 4.66%.

First: CC(C)CNC(=O)C(=O)NCC1CCCN1S(=O)(=O)c1cccs1 (centres unmarked)
Second: Cc1ccc(S(=O)(=O)Cn2nnnc2C(C(C)C)N2CCSCC2)cc1 (centres unmarked)
The “hERG current change (%, negative = inhibition) at 1uM” value of the first is higher: 12% for the first, 5.51% for the second.

Going from `Cc1ccc(NS(=O)(=O)c2c(C)ccc3nsnc23)c([N+](=O)[O-])c1` to `CC1CC(=O)C2=C(C1)Nc1ncnn1C2c1ccccc1` (centres unmarked), the “hERG current change (%, negative = inhibition) at 1uM” value rises from 12.6% to 18%.

First: COc1ccc2c(c1OC)C(=O)N1C2SC[C@H]1C(=O)NCCC(C)C (some centres unmarked)
Second: Cn1c(O)c(/C=N/c2ccccn2)c(=O)n(C)c1=O
The “hERG current change (%, negative = inhibition) at 1uM” value of the first is lower: 9.05% for the first, 11.1% for the second.

Compared with `Nc1ccc(S(=O)C(F)(F)F)cc1` (centres unmarked), `CCCCOc1ccc(Cc2cnc(N)nc2N)cc1` is higher in “hERG current change (%, negative = inhibition) at 1uM” value: 11.1% for the first, 12.5% for the second.

First: Cc1ccc(N(C=NC#N)CC(=O)N2CCN(c3ccccc3)CC2)cc1
Second: O=C(c1ccco1)N(Cc1cccc(F)c1)C1CCS(=O)(=O)C1 (centres unmarked)
The “hERG current change (%, negative = inhibition) at 1uM” value of the first is lower: -19.8% for the first, 10.4% for the second.
